46 molecules from PubChem BioAssay AID1963576 (National Center for Advancing Translational Sciences (NCATS), 2024) can be followed below.

Structures are written as SMILES. Hit rate of the full screen: of about 46,000 compounds, about 60 (0.1%) were called active. Not shown: some 3% with an inconclusive outcome. The call rests on the fitted dose curve; in most records, active means well fitted inhibition curve with a large enough effect; inconclusive means small, poorly fitted or top-dose-only effect; inactive means no such curve, though single readings can be large or run the other way. Some of the results follow.

A short description of this test: Primary qHTS assay for Inhibitors of ovarian cancer metastasis using an organotypic tumor microenvironment (TME) model. Further: nearly all actives have a fitted effect of over 65% in size.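 On activity change, negative = inhibition: plate controls were DMSO wells for no effect and tomatine positive control wells for full effect.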 To be noted: SKOV3ip1-GFP adhesion/invasion on 3D omental model, fluorescence; series mostly up to 45.8 µM; activity change, negative = inhibition: at the top concentration. In short, it runs like this:
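A 3D layer of primary human omental fibroblasts, mesothelial cells, fibronectin and collagen I, grown 48 hr, received SKOV3ip1-GFP cells in serum-free medium plus compounds at 0.36-46 umol/L. After 2 hr RT and 16 hr 37 C, fixed adherent GFP cells were counted; normalized to DMSO and tomatine.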
Background: Quantitative high-throughput screening tests each substance at several concentrations.
Take `CCN(CC)CCNC(=O)c1nn(-c2ccc(OC)c(Cl)c2)c(=O)c2c1c1ccccc1n2C`: the “activity change, negative = inhibition” value was inactive: 2.51%.

Regarding `CCOC(=O)C1CCN(S(=O)(=O)c2cc3c4c(c2)CC(=O)N4CCC3)CC1`, the “activity change, negative = inhibition” value was inactive: 7.98%.

Turning to `CCCNC(=O)c1c(C)nn(-c2cccc(C)c2)c1-n1cccc1`, the “activity change, negative = inhibition” value is inactive: -16.6%.

As to `COc1cc(OC)cc(-c2nc3nc(C)c(CCC(=O)Nc4ccc(F)cc4F)c(C)n3n2)c1`, the “activity change, negative = inhibition” value is inactive: -3.69%.

For `COc1cccc(C(=O)N2c3nc(-c4ccco4)nn3C3(CCCCC3)[C@@H]3CCCC[C@@H]32)c1`, the result was inactive.

Consider `CCc1nn(C(C)C(=O)N2CCN(c3cccc(C(F)(F)F)c3)CC2)c(=O)c2cc3occc3n12` (stereo unspecified), for which the result was inactive.

Take `Cc1ccc(Cn2cc(C(=O)c3ccc(F)cc3)c(=O)c3cc4c(cc32)OCCO4)cc1`: the “activity change, negative = inhibition” value is inactive: -3.35%.

On to `CCc1ccccc1NC(=O)CSCc1cnn(-c2ccccc2)c1-n1cccc1`, for which the “activity change, negative = inhibition” value was inactive: 0.883%.

For `Cc1ccc2c(c1)c1c(c(=O)n(-c3ccccc3C)c(=O)n1CC(=O)N1CCCC1)n2C`, the “activity change, negative = inhibition” value is inactive: -1.84%.

As for `Cc1ccccc1Nc1sc(C(=O)c2ccccc2)c(N)c1C(=O)NCc1ccc(Cl)cc1`, the “activity change, negative = inhibition” value was inactive: -2.86%.

In the case of `Cc1ccc2ncc3c(-c4ccc(F)cc4)nn(-c4cccc(F)c4)c3c2c1`, the “activity change, negative = inhibition” value was inactive: 2.3%.

Turning to `COc1cc(OC)c(NC(=O)CC(c2cccs2)N2Cc3ccccc3C2=O)cc1Cl` (stereo unspecified), the call was inactive.

Regarding `CCOc1ccccc1CNCCNC(=O)c1nonc1N`, the “activity change, negative = inhibition” value is inactive: -2.82%.

For the molecule `CCC(C)NC(=O)CSc1nc2cc3c(cc2c(=O)n1CCCCCC(=O)NCc1ccc2c(c1)OCO2)OCO3` (stereo unspecified), the “activity change, negative = inhibition” value was inactive: 6.39%.

Take `Cc1nc2nc[nH]n2c(=O)c1CCC(=O)Nc1ccc(F)cc1`: the result was inactive.

Take `Cc1ccc(CNC(=O)C2CCN(S(=O)(=O)c3ccc4[nH]c(=O)ccc4c3)CC2)cc1`: the “activity change, negative = inhibition” value was inactive: -22.5%.

Regarding `Cc1ccccc1S(=O)(=O)Cc1ccc(C(=O)NC2CCC(C)CC2)o1` (stereo unspecified), the “activity change, negative = inhibition” value was inactive: 2.51%.

On to `CCOc1ccc(NC(=O)Cn2c(=O)n(-c3ccccc3)c(=O)c3ccc(C(=O)NCc4ccc5c(c4)OCO5)cc32)cc1`, for which the “activity change, negative = inhibition” value was inactive: 24%.

Take `COc1cccc2cc(C(=O)Nc3ccc(F)c(F)c3)c(=O)oc12`: the “activity change, negative = inhibition” value was inactive: -22.9%.

Turning to `O=C(Cn1c(=O)n(Cc2cccs2)c(=O)c2cccnc21)Nc1ccc(F)cc1`, the “activity change, negative = inhibition” value was inactive: -8.6%.

Take `Cc1nn(-c2ccccc2)c2c1N(CC(=O)N1CCN(c3ccc(F)cc3)CC1)C(=O)CS2`: the molecule was classed as inactive.

Take `CC1(C)C(=O)N(CC(=O)Nc2cccc(F)c2)c2ccc(S(=O)(=O)N3CCCCC3)cc21`: the “activity change, negative = inhibition” value was inactive: -0.851%.

For the molecule `Cc1cc(-c2ccc(C)c(S(=O)(=O)NC3CCCCC3)c2)on1`, the “activity change, negative = inhibition” value was inactive: 18.1%.

As for `CCOc1ccc(-n2ccnc2SCC(=O)Nc2nc3ccc(C)cc3s2)cc1`, the “activity change, negative = inhibition” value was inactive: 3.68%.

With `CCOc1cc(-c2nnc(SCC(=O)NC3CCCC3)nc2-c2ccc(OC)c(OCC)c2)ccc1OC`, the molecule was called inactive.

`CCCCCSc1nnc(-c2ccc(Br)cc2)o1`: the “activity change, negative = inhibition” value was inactive: 5.57%.

On to `Cc1ccc(Cl)cc1-n1c(=O)c2sc3ccccc3c2n(Cc2ccccc2)c1=O`, for which the “activity change, negative = inhibition” value is inactive: 1.85%.

With `O=C(Nc1cccc(F)c1)[C@H](CSCc1ccccc1)N1Cc2ccccc2C1=O`, the “activity change, negative = inhibition” value was inactive: 4%.

As for `COc1ccc(NC(=O)C2CCN(S(=O)(=O)c3ccc4[nH]c5c(c4c3)CCCCC5)CC2)cc1`, the “activity change, negative = inhibition” value was inactive: 4.25%.

With `CCOc1ccc(NC(=O)Cn2cc(S(=O)(=O)NC)c(S(=O)(=O)NC)c2)cc1`, the “activity change, negative = inhibition” value is inactive: -3.03%.

Regarding `Cn1c(=O)c(Oc2ccc(F)cc2F)cc2cnc(NC3CCOCC3)nc21`, the “activity change, negative = inhibition” value was inactive: -20.3%.

For `CC(C)c1ccc(-c2nc(C(N)=O)c3c(n2)n(-c2ccc4c(c2)OCO4)c(=O)n3C)cc1`, the “activity change, negative = inhibition” value was inactive: 21.5%.

With `O=C(CSc1nccn1C1CCCC1)Nc1ccc(C(F)(F)F)cc1`, the molecule was classed as inactive.

Consider `CC(C)CCN1C(=O)c2ccccc2CC1(C)C(=O)NC1CCC(C)CC1` (stereo unspecified), for which the “activity change, negative = inhibition” value was inactive: 6.39%.

Regarding `Cc1ccc(NC(=O)C2CCCN(c3ncnc4onc(-c5ccc(F)cc5)c34)C2)c(Cl)c1` (stereo unspecified), the “activity change, negative = inhibition” value was inactive: -5.3%.

For the molecule `CCOC(=O)C1=C(C)NC(=O)NC1c1cn(-c2ccccc2)nc1-c1ccc(OCC)cc1` (stereo unspecified), the outcome was inactive.

Take `CCCCOc1cccc(C(=O)Nc2cccc(-c3nc4ncccc4o3)c2C)c1`: the “activity change, negative = inhibition” value is inactive: 4.71%.

For the molecule `C=C1c2cccc(O)c2C(O)=C2C(=O)[C@@]3(O)C(O)=C(C(N)=O)C(=O)[C@@H](N(C)C)[C@@H]3[C@@H](O)[C@H]12`, the “activity change, negative = inhibition” value is inactive: -4.3%.

Consider `Cc1cccc(N2CCN(C(=O)CN3C(=O)COc4ccc(S(=O)(=O)N5CCCCCC5)cc43)CC2)c1C`, for which the “activity change, negative = inhibition” value was inactive: -14.5%.

Consider `CSc1ncc(C(=O)N2CCN(c3cc(C)ccc3C)CC2)c(C)n1`, for which the outcome was inactive.

Turning to `CCC(C)NC(=O)Cn1ccc2cc(S(=O)(=O)N3CCCCC3)ccc21` (stereo unspecified), the “activity change, negative = inhibition” value was inactive: -3.41%.

As for `CCOc1ccc(-c2ncnn2-c2sc3c(c2C#N)CCCCC3)cc1`, the outcome was inactive.

On to `CC(C)c1ccc(N2C(=O)CS(=O)(=O)C23C(=O)N(Cc2cccc(F)c2)c2ccccc23)cc1` (stereo unspecified), for which the outcome was inactive.

Take `CCC1CN(C(=O)NCc2ccc(C)cc2)c2ccccc2O1` (stereo unspecified): the “activity change, negative = inhibition” value is inactive: -0.921%.

For `CCCCNC(=O)C(Cc1ccccc1)NS(=O)(=O)c1ccc2c(c1)c(=O)n(C)c(=O)n2C` (stereo unspecified), the “activity change, negative = inhibition” value was inactive: -0.132%.

Take `CCn1c(=N)c(C(=O)NCc2ccccc2)cc2c(=O)n3cc(C)ccc3nc21`: the “activity change, negative = inhibition” value was inactive: -24%.
